{"source": "ChEMBL document CHEMBL4888484", "about": "“Replenishing the malaria drug discovery pipeline: Screening and hit evaluation of the MMV Hit Generation Library 1 (HGL1) against asexual blood stage Plasmodium falciparum ,using a nano luciferase reporter read-out” (2022)", "note": "Screen size: about 150,000 compounds; about 540 (0.36%) showed an effect of 50% or more. The list shows a part of the results."}
{"tested_on": "Plasmodium falciparum", "test": "Primary screen in NF54 nanoGlo assay, in single point, at 2uM, 72h; a lower Z score goes with more inhibition", "format": "functional, Erythrocyte", "conditions": "timepoint 72 hour", "units": {"% Inhibition": "%"}}
{"smiles": "O=C(O)[C@@H]1CCCN1Cc1nnnn1-c1ccc(Cl)cc1C(F)(F)F", "% Inhibition": -12, "Z score": 1.34}
{"smiles": "COc1ccccc1CC(=O)N1CC[C@H](c2ncon2)C1", "% Inhibition": -2, "Z score": 0.41}
{"smiles": "CC(C)N(C[C@H]1CCC(=O)N1)S(=O)(=O)Cc1ccc(F)cc1", "% Inhibition": -9, "Z score": 1.02}
{"smiles": "CC(=O)N1CCN(CCNc2nc(-c3ccc(Cl)cc3)no2)CC1", "% Inhibition": -11, "Z score": 1.26}
{"smiles": "Cn1nncc1S(=O)(=O)N1CCC[C@H](n2cccn2)C1", "% Inhibition": 0, "Z score": 0}
{"smiles": "COC1CCCCC1NC(=O)N[C@H](CCO)c1ccccc1", "note": "(stereo partly drawn)", "% Inhibition": -7, "Z score": 0.77}
{"smiles": "COc1ccc(C(=O)N(CC(=O)N2CCN(c3ccc(-c4cccc(OC)c4)nn3)CC2)C2CC2)cc1", "% Inhibition": -9, "Z score": 1.51}
{"smiles": "CC[C@H]1C=CCN1C(=O)c1cc2c(Cl)cccc2[nH]1", "% Inhibition": -4, "Z score": 0.65}
{"smiles": "COC(=O)CN(c1cc(F)cc(F)c1)S(=O)(=O)c1cccn2c(C)nnc12", "% Inhibition": -6, "Z score": 1.11}
{"smiles": "c1ccc(OCCc2nnc3n2CCCC[C@H]3C2CCOCC2)cc1", "% Inhibition": 5, "Z score": -0.72}
{"smiles": "CC(C)n1nccc1NS(=O)(=O)Cc1cccc(F)c1", "% Inhibition": 30, "Z score": -3.37}
{"smiles": "COc1ccc(OC)c(Cn2ccnc2C(C)C)c1", "% Inhibition": -15, "Z score": 2.53}
{"smiles": "COc1cc(OC)c(N2C[C@@H](C(=O)Nc3ccc4nc(C)sc4c3)CC2=O)cc1Cl", "% Inhibition": 10, "Z score": -1.69}
{"smiles": "C[C@H]1CC[C@@H](C(=O)NCCc2c[nH]c3cc(F)c(Cl)cc23)O1", "% Inhibition": -7, "Z score": 1.36}
{"smiles": "COCC(=O)N1CCN([C@H]2CCN(CCc3ccccc3)C2=O)CC1", "% Inhibition": -17, "Z score": 2.25}
{"smiles": "Cn1c(=O)c2c(ncn2CC(=O)N2CCN(c3ccccc3O)CC2)n(C)c1=O", "% Inhibition": -5, "Z score": 0.75}
{"smiles": "N#Cc1ccc(CN(C2CC2)S(=O)(=O)c2cccnc2)cc1", "% Inhibition": -9, "Z score": 1.26}
{"smiles": "COc1cc(-c2nc3c(cnn3Cc3ccc(C)o3)[nH]2)cc(Cl)c1O", "% Inhibition": -3, "Z score": 0.43}
{"smiles": "CCCc1cnc(C)nc1-c1cccc(C(=O)N2CCNC(=O)[C@@H]2CCO)c1", "% Inhibition": -13, "Z score": 1.87}
{"smiles": "CCNC(=O)N1C2CCC(C2)C1C(=O)NC1CCCC1", "note": "(stereo not drawn)", "% Inhibition": -9, "Z score": 1.2}
{"smiles": "CN(Cc1nnc(C2CC2)n1C)C(=O)Cc1ccc2c(c1)CCCO2", "% Inhibition": -21, "Z score": 2.73}
{"smiles": "O=C(NC[C@H]1Cn2c(-c3ccc(F)cc3)cnc2CO1)c1ccc(Cl)cc1", "% Inhibition": 31, "Z score": -3.52}
{"smiles": "CCOc1ccc(-c2nn(CC(=O)Nc3cccc(C)c3)c3c2cnc2ccccc23)cc1", "% Inhibition": -14, "Z score": 1.21}
{"smiles": "COc1cnc(NC(=O)[C@@H]2CCCc3ccccc32)s1", "% Inhibition": -5, "Z score": 0.51}
{"smiles": "CCc1nc(NC(=O)N2CCCC(F)(F)CC2)sc1C(C)(C)C", "% Inhibition": 0, "Z score": -0.03}
{"smiles": "CN(Cc1cnccn1)c1cc(C(F)(F)F)nc(-c2ccncc2)n1", "% Inhibition": 7, "Z score": -1.42}
{"smiles": "COc1ncccc1C(=O)N1CCN(Cc2cccc(C)n2)[C@@H](CCO)C1", "% Inhibition": -2, "Z score": 0.34}
{"smiles": "CC1CCC(OCC(=O)N2CCN(c3ccc(C(N)=O)cc3)CC2)CC1", "note": "(stereo not drawn)", "% Inhibition": -17, "Z score": 3.61}
{"smiles": "CC(=O)c1cccc(-n2cnnc2Cn2nc(C)c(C)c2C)c1", "% Inhibition": 10, "Z score": -1.98}
{"smiles": "Cc1nc2c(-c3ccc(F)cc3)cnn2c2c1CCC2", "% Inhibition": -8, "Z score": 1.53}
{"smiles": "COc1ccc(-c2nccn2-c2ccc(-c3nncn3C)cc2)cc1C(=O)O", "% Inhibition": 13, "Z score": -1.75}
{"smiles": "CCc1nc2c(c(=O)n1CC(=O)NCCC(C)C)CN(Cc1ccccc1)CC2", "% Inhibition": -16, "Z score": 1.82}
{"smiles": "N#Cc1ccc(COCC2CCN(CC(=O)NC[C@H]3CCCO3)CC2)cc1", "% Inhibition": -5, "Z score": 0.54}
{"smiles": "CCOC1CC(CCNC(=O)[C@@H]2CCCN2C(=O)c2ccccn2)C1", "note": "(stereo partly drawn)", "% Inhibition": 4, "Z score": -0.56}
{"smiles": "CCOc1ccccc1CCNC(=O)c1ccc([C@H](C)N2CCCCC2)o1", "% Inhibition": -2, "Z score": 0.42}
{"smiles": "Oc1nc2ccccc2c(-c2ccccc2)c1-c1cc(-c2ccccc2)c2ccc(Cl)cc2n1", "% Inhibition": 2, "Z score": -0.27}
{"smiles": "O=C(OCCc1cccnc1)c1ccc(N2CCCC2)nc1", "% Inhibition": -11, "Z score": 1.26}
{"smiles": "COCCN(Cc1cc(OC)cc(OC)c1)C[C@H](O)COCC(C)C", "% Inhibition": -4, "Z score": 0.79}
{"smiles": "CCN(Cc1nc(-c2ccccn2)no1)Cc1ccc(Cl)s1", "% Inhibition": -15, "Z score": 1.23}
{"smiles": "Cc1ccc(NC(=O)Nc2cc(C)ccc2N2CCCN(Cc3cc(F)ccc3F)C2=O)cc1", "% Inhibition": -8, "Z score": 0.82}
{"smiles": "Cn1cncc1CCNC(=O)Cc1cc(F)c(F)cc1F", "% Inhibition": 3, "Z score": -0.31}
{"smiles": "c1cn(-c2ccc(CN3CCN(c4nccs4)CC3)cc2)cn1", "% Inhibition": -1, "Z score": 0.14}
{"smiles": "C[C@H](NC(=O)N(Cc1ccccc1F)C1CCC1)c1cnn(C)c1", "% Inhibition": 36, "Z score": -0.71}
{"smiles": "COc1ccc(CNC(=O)c2c(C)noc2-c2cccnc2)cc1", "% Inhibition": -5, "Z score": 0.81}
{"smiles": "CN(Cc1cscn1)Cc1cc(-c2cccs2)ccc1OCC(=O)N1CCN(c2cccc(C(F)(F)F)c2)CC1", "% Inhibition": -7, "Z score": 0.92}
{"smiles": "CCOc1ccc(OCC)c(NS(=O)(=O)c2cc(-c3cnc(C)o3)ccc2OC)c1", "% Inhibition": -6, "Z score": 1.04}
{"smiles": "CCCNC(=O)NC(=O)CNc1cc(NC(=O)CC)ccc1Cl", "% Inhibition": -9, "Z score": 1.26}
{"smiles": "c1ccc(CN2CC(c3nc(-c4ccsc4)no3)C2)cc1", "% Inhibition": -12, "Z score": 1.33}
{"smiles": "COc1ccc(COCc2cccc(NCc3nccn3C)c2)cc1", "% Inhibition": 27, "Z score": -3.09}
{"smiles": "O=C(CCS(=O)(=O)Cc1cccc(Cl)c1)NCc1ccccc1Cl", "% Inhibition": -10, "Z score": 1.63}
{"smiles": "O=C1CCC(c2ccccc2)(c2ccccc2)CN1CC1(CO)CCOCC1", "% Inhibition": -10, "Z score": 1.13}
{"smiles": "CC1CC(C)CN(c2oc(C3CC3c3ccccc3)nc2C#N)C1", "note": "(stereo not drawn)", "% Inhibition": 2, "Z score": -0.31}
{"smiles": "Cc1ccc(-n2cc(CCO)cn2)c(N)n1", "% Inhibition": 7, "Z score": -1.21}
{"smiles": "COc1ccc(N[C@H]2CCCN(C(=O)c3ccccc3-c3ccccc3F)C2)cc1OC", "% Inhibition": -18, "Z score": 1.61}
{"smiles": "CC(C)(O)[C@H]1CCN(C(=O)c2cc(Cl)c[nH]c2=O)C1", "% Inhibition": -8, "Z score": 1.46}
{"smiles": "COc1ccc(C(=O)NCc2ccc(OC3CCCC3)c(OC)c2)cc1OC", "% Inhibition": -22, "Z score": 3.47}
{"smiles": "CC[C@@H]1C(=O)NCCCN1C(=O)Cn1nnnc1C(C)C", "% Inhibition": -3, "Z score": 0.41}
{"smiles": "CCNC(=O)N1CCC2(CC1)N=C(C1CC1)NC2=O", "% Inhibition": -7, "Z score": 1.28}
{"smiles": "O=C(Cn1cc(C(F)(F)F)ccc1=O)c1ccc2c(c1)CCC2", "% Inhibition": -2, "Z score": 0.27}
{"smiles": "Cc1cc(C)n(C[C@H](C)N2CC(n3nc(C)cc3C)C2)n1", "% Inhibition": -3, "Z score": 0.25}
{"smiles": "c1cc(Cn2cccn2)cc(-c2nc([C@H]3CCOC3)no2)c1", "% Inhibition": -6, "Z score": 1.05}
{"smiles": "COc1ccc(S(=O)(=O)Nc2nc(C)c(C(=O)N3CCCCC3)s2)cc1", "% Inhibition": 17, "Z score": -2.29}
{"smiles": "CCOc1ccc(CCNC(=O)[C@H]2CCCN(S(=O)(=O)c3c(C)n[nH]c3C)C2)cc1OCC", "% Inhibition": -2, "Z score": 0.32}
{"smiles": "CCS(=O)(=O)N1CCC[C@H](CCc2noc(-c3ccccn3)n2)C1", "% Inhibition": -3, "Z score": 0.52}
{"smiles": "COc1ccc(CC(=O)Nc2nc(C3CC3)cs2)cc1OC", "% Inhibition": -12, "Z score": 1.54}
{"smiles": "CC(=O)[C@@H]1C[C@H](c2nc(-c3cnc4ccccn34)no2)C1(C)C", "% Inhibition": -9, "Z score": 1.54}
{"smiles": "Cc1nnc(C(C)N2CC(C)Cc3ccccc32)o1", "note": "(stereo not drawn)", "% Inhibition": -3, "Z score": 0.42}
{"smiles": "CN(C)c1ccc(S(=O)(=O)N2CCC[C@H](C(=O)N3CCCCCC3)C2)cc1", "% Inhibition": -10, "Z score": 0.98}
{"smiles": "COc1cc(C(=O)N2CCN(CC3CC3)[C@@H]3CS(=O)(=O)C[C@@H]32)ccc1O", "% Inhibition": 0, "Z score": -0.02}
{"smiles": "CCc1cnc(NC[C@H]2CC(=O)N(CCOC)C2)nc1", "% Inhibition": 0, "Z score": -0.06}
{"smiles": "O=C(NCCOc1ccccc1)NCc1ccsc1", "% Inhibition": -10, "Z score": 1.19}
{"smiles": "O=S(=O)(Cc1ccccc1)NCCNc1ccc(-n2cccn2)nn1", "% Inhibition": -16, "Z score": 1.82}
{"smiles": "Cc1cc(O)c2cccc(-c3cccc4c3CCNC4)c2n1", "% Inhibition": -5, "Z score": 0.79}
{"smiles": "COC(=O)c1ncccc1N1CCC[C@H](c2nccs2)C1", "% Inhibition": -1, "Z score": 0.07}
{"smiles": "Cc1cc(-c2nc(-c3ccc(F)cc3)no2)c(C)n1CC(=O)Nc1ccc(F)cc1", "% Inhibition": -8, "Z score": 1.57}
{"smiles": "Cn1nc(C(F)(F)F)cc1NC(=O)[C@@H]1CCC(=O)c2cccn21", "% Inhibition": -15, "Z score": 1.8}
{"smiles": "Cc1ccc(-n2nc(C(=O)Nc3cc(F)ccc3F)c3ccccc32)cc1", "% Inhibition": -7, "Z score": 1.07}
{"smiles": "O=C(CN(CC1CC1)C(=O)c1cccs1)Nc1nc(-c2ccccc2)cn1-c1ccc(F)c(Cl)c1", "% Inhibition": -15, "Z score": 1.49}
{"smiles": "O=C(Nc1ccc(F)c(C2CC2)c1)N1CCC[C@@H]1CO", "% Inhibition": -8, "Z score": 1.09}
{"smiles": "CC(=O)c1ccc(Br)cc1N", "% Inhibition": -15, "Z score": 1.48}
{"smiles": "CC(C)c1nc(N2CCN(Cc3ccc(S(C)(=O)=O)cc3)CC2)no1", "% Inhibition": 5, "Z score": -0.67}
{"smiles": "CC(C)c1nccc(N2CCC23CCOCC3)n1", "% Inhibition": 11, "Z score": -1.42}
{"smiles": "Cc1cc(CNC(=O)c2cnc(Cn3cncn3)nc2O)c(C(F)(F)F)o1", "% Inhibition": -10, "Z score": 1.32}
{"smiles": "CC[C@H](C)NC(=O)c1coc(CN2CCN(Cc3ccc(N(C)C)cc3)CC2)n1", "% Inhibition": -4, "Z score": 0.69}
